This test has as its system CD2F1 mice, ip Colon 26 adenocarcinoma, median survival T/C. The test is described as follows: NCI In Vivo Anticancer Drug Screen. Data for tumor model Colon 26 Adenocarcinoma (intraperitoneal) in CD2F1 (CDF1) mice. Conditions: endpoint: median survival time, higher = longer survival. The procedure:
The antitumor activity of compounds was measured in mice bearing transplantable tumors. Survival or tumor size were measured and the results are expressed as the measurement made in the treated group (T) divided by the measurement made in the vehicle treated control group (C). The tumor model used in this assay is Colon 26 Adenocarcinoma (intraperitoneal) in CD2F1 (CDF1) mice

Structures are written as SMILES. Toxic doses and inconclusive results are not listed. For part of its entries the source gives two or more results. The list is limited to them. There may be further records. Values that stand side by side differ, and nothing given here explains why; dose, time, organism, isomer or construct need not be as stated for each record.

As to `S=c1nc[nH]c2nc[nH]c12`, the T/C (dose: 25.0 mg/kg/injection, schedule: Q04DX003 (ip), vehicle: Klucel (hydroxypropylcellulose) (HPC)) is 117 % of control and 164 % of control.
Take `CC1CCC(NC(=O)N(CCCl)N=O)CC1` (stereo not given): the T/C (dose: 35.0 mg/kg/injection, schedule: Q07DX003 (ip), vehicle: saline with Tween-80) was 119 % of control and 171 % of control.
`N/C(=N\O)c1cn(C2OC(CO)C(O)C2O)c2ncnc(N)c12` (stereo not given): the T/C is 105 % of control and 165 % of control (dose: 4.0 mg/kg/injection, schedule: Q04DX003 (ip), vehicle: Klucel (hydroxypropylcellulose) (HPC)); 118 % of control and 192 % of control (dose: 8.0 mg/kg/injection, schedule: Q04DX003 (ip), vehicle: Klucel (hydroxypropylcellulose) (HPC)).
Take `CN(C)CCNc1ccc(NCCN(C)C)c2c1C(=O)c1ccccc1C2=O`: for the setting “dose: 20.0 mg/kg/injection, schedule: Q01DX009 (ip), vehicle: acid diluted with saline”, the T/C is 113 % of control and 152 % of control.

Source of the values: PubChem BioAssay AID210 (DTP/NCI, 2004).
